Results are given in words; binding and its absence hold for the method and conditions named. For part of these data: Binding seen in cells or lysates may run through a third protein. Some results given as binding are weak or reduced against the parent protein; the word gives no strength. For part of these data: Sequences can lack the tags named with a protein. Blank lines part the entries; values can stand above or below the molecule they belong to.
Assays:
[1] = target: T1, Flag-tagged Ephexin1 (wild-type) (human) (UniProt Q8N5V2); assay: co-IP; HEK293T cells transiently transfected with Flag-tagged Ephexin1; immunoprecipitation with anti-Flag antibody, immunoblot of endogenous partners; IP150 lysis buffer (150 mM NaCl, 0.5% NP-40)
T1 sequence: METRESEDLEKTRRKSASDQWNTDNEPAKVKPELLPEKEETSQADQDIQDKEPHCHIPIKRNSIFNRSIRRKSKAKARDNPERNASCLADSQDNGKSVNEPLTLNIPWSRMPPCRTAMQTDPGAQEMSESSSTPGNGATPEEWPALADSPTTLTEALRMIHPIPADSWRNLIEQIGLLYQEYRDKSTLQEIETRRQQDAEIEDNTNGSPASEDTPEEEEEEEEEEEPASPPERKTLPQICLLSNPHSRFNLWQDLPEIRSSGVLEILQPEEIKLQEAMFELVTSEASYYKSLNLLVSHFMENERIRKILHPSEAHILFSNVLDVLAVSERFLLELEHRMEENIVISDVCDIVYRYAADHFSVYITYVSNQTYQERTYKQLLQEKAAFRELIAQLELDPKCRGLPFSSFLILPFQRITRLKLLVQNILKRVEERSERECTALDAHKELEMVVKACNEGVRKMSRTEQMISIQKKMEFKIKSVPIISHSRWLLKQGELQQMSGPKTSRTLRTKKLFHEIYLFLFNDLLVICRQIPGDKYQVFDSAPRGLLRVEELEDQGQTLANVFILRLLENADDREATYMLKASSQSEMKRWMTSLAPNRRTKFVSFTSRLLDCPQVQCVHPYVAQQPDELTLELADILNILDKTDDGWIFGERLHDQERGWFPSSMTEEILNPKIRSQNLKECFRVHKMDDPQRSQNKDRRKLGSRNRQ

By UniProt entry, the sequences of proteins in these tests, tags left out.
UniProt O15169: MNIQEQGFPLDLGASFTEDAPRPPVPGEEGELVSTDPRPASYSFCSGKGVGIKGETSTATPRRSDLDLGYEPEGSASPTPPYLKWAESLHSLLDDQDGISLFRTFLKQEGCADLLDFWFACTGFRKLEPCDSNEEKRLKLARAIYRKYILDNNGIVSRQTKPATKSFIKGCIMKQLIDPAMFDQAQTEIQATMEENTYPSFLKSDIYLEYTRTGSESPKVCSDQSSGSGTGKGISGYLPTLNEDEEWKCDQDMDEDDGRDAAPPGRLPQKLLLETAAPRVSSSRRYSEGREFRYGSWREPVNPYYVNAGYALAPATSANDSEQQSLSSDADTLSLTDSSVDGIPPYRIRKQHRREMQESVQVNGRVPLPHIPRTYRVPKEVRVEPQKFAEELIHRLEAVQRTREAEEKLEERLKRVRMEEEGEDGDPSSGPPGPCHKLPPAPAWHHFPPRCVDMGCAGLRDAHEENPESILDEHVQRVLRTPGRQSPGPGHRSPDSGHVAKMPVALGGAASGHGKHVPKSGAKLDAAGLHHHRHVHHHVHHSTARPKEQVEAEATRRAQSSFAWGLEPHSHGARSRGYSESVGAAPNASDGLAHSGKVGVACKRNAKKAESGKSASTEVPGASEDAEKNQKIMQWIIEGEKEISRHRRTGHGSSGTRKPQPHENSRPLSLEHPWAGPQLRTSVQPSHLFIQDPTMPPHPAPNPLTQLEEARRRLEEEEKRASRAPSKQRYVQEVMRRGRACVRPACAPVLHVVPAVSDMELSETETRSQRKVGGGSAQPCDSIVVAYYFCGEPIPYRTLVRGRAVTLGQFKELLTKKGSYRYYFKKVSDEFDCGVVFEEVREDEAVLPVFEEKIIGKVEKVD
UniProt Q9NQB0: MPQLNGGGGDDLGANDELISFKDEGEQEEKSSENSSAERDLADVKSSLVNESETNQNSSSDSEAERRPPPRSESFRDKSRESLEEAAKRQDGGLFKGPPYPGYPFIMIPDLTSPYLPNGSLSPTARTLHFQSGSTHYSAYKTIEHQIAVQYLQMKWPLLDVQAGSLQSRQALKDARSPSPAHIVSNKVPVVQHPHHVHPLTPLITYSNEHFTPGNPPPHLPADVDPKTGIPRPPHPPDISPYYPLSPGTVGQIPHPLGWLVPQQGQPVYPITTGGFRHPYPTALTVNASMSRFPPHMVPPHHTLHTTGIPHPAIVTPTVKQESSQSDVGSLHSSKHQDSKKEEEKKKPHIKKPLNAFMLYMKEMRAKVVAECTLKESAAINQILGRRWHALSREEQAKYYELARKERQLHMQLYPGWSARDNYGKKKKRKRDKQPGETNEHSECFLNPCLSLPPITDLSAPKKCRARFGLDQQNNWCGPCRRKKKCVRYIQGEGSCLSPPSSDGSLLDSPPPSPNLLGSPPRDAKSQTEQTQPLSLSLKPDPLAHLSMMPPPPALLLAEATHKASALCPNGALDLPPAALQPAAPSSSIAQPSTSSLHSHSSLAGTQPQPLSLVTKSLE
UniProt P49841: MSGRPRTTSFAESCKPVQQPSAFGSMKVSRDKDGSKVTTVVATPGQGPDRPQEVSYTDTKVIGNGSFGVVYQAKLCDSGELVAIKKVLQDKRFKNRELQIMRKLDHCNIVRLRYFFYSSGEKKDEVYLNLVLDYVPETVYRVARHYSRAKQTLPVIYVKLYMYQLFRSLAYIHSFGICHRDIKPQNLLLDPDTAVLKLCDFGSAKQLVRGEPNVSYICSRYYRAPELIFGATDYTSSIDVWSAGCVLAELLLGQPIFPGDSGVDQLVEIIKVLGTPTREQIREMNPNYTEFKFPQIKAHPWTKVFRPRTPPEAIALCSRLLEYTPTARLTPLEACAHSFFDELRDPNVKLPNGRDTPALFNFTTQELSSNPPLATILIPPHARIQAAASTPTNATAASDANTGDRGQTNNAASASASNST
UniProt P35222: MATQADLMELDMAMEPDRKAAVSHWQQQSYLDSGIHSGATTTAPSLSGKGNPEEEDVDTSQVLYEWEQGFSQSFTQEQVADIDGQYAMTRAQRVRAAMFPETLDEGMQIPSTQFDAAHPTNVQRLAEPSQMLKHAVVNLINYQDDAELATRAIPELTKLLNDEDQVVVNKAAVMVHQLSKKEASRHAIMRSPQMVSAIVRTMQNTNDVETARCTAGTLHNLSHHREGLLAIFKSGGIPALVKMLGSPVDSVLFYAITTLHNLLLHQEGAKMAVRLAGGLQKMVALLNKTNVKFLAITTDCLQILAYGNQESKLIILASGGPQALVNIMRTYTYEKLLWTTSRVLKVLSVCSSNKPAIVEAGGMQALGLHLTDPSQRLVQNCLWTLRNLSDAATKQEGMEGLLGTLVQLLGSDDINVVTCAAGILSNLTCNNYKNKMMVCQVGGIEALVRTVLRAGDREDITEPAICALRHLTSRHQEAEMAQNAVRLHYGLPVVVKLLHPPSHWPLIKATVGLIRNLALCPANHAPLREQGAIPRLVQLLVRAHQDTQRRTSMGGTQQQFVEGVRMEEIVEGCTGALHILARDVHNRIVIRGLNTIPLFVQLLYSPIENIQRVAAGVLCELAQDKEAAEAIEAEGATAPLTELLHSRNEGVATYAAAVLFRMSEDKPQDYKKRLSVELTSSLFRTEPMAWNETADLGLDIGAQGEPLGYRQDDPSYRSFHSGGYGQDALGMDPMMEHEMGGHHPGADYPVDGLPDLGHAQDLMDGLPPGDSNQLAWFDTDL

[2] = target: T2, Ephexin1 (endogenous, colorectal tissue) (human (endogenous in colorectal tissue)) (UniProt Q8N5V2); assay: proximity ligation; Duolink PLA on tissue microarrays of colorectal cancer of various grades and adjacent normal tissue; anti-Ephexin1 (rabbit) and anti-Axin1 (mouse) antibodies
T2 sequence: T1 sequence

[3] = target: T1, Flag-tagged Ephexin1 (wild-type) (human); assay: co-IP; HEK293T cells cotransfected with Flag-tagged Ephexin1 (wild-type or ABSM mutant) and V5-tagged Axin1; immunoprecipitation with anti-Flag antibody, blot with anti-V5; with Wnt3a-CM for the indicated durations in Fig. 4b
[4] = target: T3, Ephexin1 (yeast two-hybrid) (human) (UniProt Q8N5V2); assay: two-hybrid; yeast two-hybrid assay; constructs in Supplementary Fig. 7a-c
T3 sequence: T1 sequence

[5] = target: Axin1 (endogenous) (human (endogenous in HEK293T, HCT116 and colorectal tissue)) (UniProt O15169); assay: co-IP; lysates of control and Ephexin1-depleted (siRNA) HEK293T cells; immunoprecipitation with anti-Axin1 antibody; endogenous proteins
[6] = target: Flag-tagged full-length Axin1 (human) (UniProt O15169); assay: co-IP; lysates of HEK293T cells cotransfected with V5-tagged Ephexin1 and Flag-tagged Axin1; immunoprecipitation with anti-Axin1 antibody; endogenous partners blotted
[7] = target: Flag-tagged full-length Axin1 (human) (UniProt O15169); assay: co-IP; HEK293T cells cotransfected with V5-tagged Ephexin1 (full-length or mutant) and Flag-tagged Axin1 (full-length or mutant); immunoprecipitation with anti-Flag antibody, blot with V5 and Flag antibodies

Molecule: V5-tagged Axin1 (from UniProt O15169 1-862)
binding [3]: binds

Molecule: TCF4 (endogenous) (from UniProt Q9NQB0 1-619)
binding [1]: binds

B1: V5-tagged Ephexin1 SH3 domain (domain or fragment, UniProt Q8N5V2 612-673)
chain: LDCPQVQCVHPYVAQQPDELTLELADILNILDKTDDGWIFGERLHDQERGWFPSSMTEEILN
binding [7]: no binding

B2: V5-tagged Ephexin1 DH/PH domain (amino acids 273 to 601) (domain or fragment, UniProt Q8N5V2 273-601)
chain: KLQEAMFELVTSEASYYKSLNLLVSHFMENERIRKILHPSEAHILFSNVLDVLAVSERFLLELEHRMEENIVISDVCDIVYRYAADHFSVYITYVSNQTYQERTYKQLLQEKAAFRELIAQLELDPKCRGLPFSSFLILPFQRITRLKLLVQNILKRVEERSERECTALDAHKELEMVVKACNEGVRKMSRTEQMISIQKKMEFKIKSVPIISHSRWLLKQGELQQMSGPKTSRTLRTKKLFHEIYLFLFNDLLVICRQIPGDKYQVFDSAPRGLLRVEELEDQGQTLANVFILRLLENADDREATYMLKASSQSEMKRWMTSLAPNRR
binding [7]: binds

B3: V5-tagged full-length Ephexin1 (protein, UniProt Q8N5V2 1-710)
chain: T1 sequence
binding [7]: binds

Now from value to molecule:

binding [1]: binds
binding [2]: binds
Molecule: Axin1 (endogenous) (from UniProt O15169 1-862)

binding [1]: binds
Molecule: Glycogen Synthase Kinase 3β (GSK3β) (endogenous) (from UniProt P49841 1-420) (enzyme)

binding [4]: binds
Molecule: Axin1 (yeast two-hybrid) (from UniProt O15169 1-862)

binding [5]: binds
binding [6]: binds
binding [1]: binds
Molecule: β-catenin (endogenous) (from UniProt P35222 1-781)
